Assay results published in the supplement of paper PMC4967469.

Key:
Assay in all cases: Viability of human cancer cell lines after 72 h of drug (GDSC screen)
JNK Inhibitor VIII = compound: CCOc1nc(NC(=O)Cc2cc(OC)ccc2OC)cc(N)c1C#N [JNK Inhibitor VIII]; details: top dose 10 µM; top dose inferred
Method: (§1)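 Human cancer cell lines in 384-well plates, medium with 10% serum, drug for 72 h over a 256-fold dose range (nine 2-fold or five 4-fold steps up to the top dose). Adherent lines were fixed and stained with the nucleic acid dye Syto60, suspension lines read with resazurin; signal relative to control wells, capped at 0 and 100%. One two-parameter sigmoid per drug and line, fitted in a mixed model over all curves with the slope shared within a line.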

CGP-60474 = compound: OCCCNc1cc(-c2ccnc(Nc3cccc(Cl)c3)n2)ccn1 [CGP-60474]; details: top dose 0.256 µM; top dose inferred
Method: as §1

SB-715992 = compound: Cc1ccc(C(=O)N(CCCN)[C@@H](c2nc3cc(Cl)ccc3c(=O)n2Cc2ccccc2)C(C)C)cc1 [SB-715992]; details: top dose 0.128 µM; top dose inferred
Method: as §1

JQ1 = compound: Cc1sc2c(c1C)C(c1ccc(Cl)cc1)=N[C@@H](CC(=O)OC(C)(C)C)c1nnc(C)n1-2 [JQ1]
Method: as §1

JNJ-26854165 = compound: c1ccc2c(CCNc3ccc(Nc4ccncc4)cc3)c[nH]c2c1 [JNJ-26854165]; details: top dose 10 µM
Method: as §1

Cyclopamine = compound: CC1=C2C[C@H]3[C@@H](CC=C4C[C@@H](O)CC[C@@]43C)[C@@H]2CC[C@]12O[C@@H]1C[C@H](C)CN[C@H]1[C@H]2C [Cyclopamine]; details: top dose 16 µM; top dose inferred
Method: as §1

Docetaxel = compound: CC(=O)O[C@@]12CO[C@@H]1C[C@H](O)[C@@]1(C)C(=O)[C@H](O)C3=C(C)[C@@H](OC(=O)[C@H](O)[C@@H](NC(=O)OC(C)(C)C)c4ccccc4)C[C@@](O)([C@@H](OC(=O)c4ccccc4)[C@H]21)C3(C)C [Docetaxel]; details: top dose 0.0125 µM
Method: as §1

AMG-706 = compound: CC1(C)CNc2cc(NC(=O)c3cccnc3NCc3ccncc3)ccc21 [AMG-706]; details: top dose 2 µM; top dose inferred
Method: as §1

Belinostat = compound: O=C(/C=C/c1cccc(S(=O)(=O)Nc2ccccc2)c1)NO [Belinostat]; details: top dose 20 µM; top dose inferred
Method: as §1

NSC-207895 = compound: CN1CCN(c2ccc([N+](=O)[O-])c3no[n+]([O-])c23)CC1 [NSC-207895]; details: top dose 20 µM; top dose inferred
Method: as §1

FTI-277 = compound: COC(=O)[C@H](CCSC)NC(=O)c1ccc(NC[C@@H](N)CS)cc1-c1ccccc1 [FTI-277]; details: top dose 1.024 µM; top dose inferred
Method: as §1

YM155 = compound: COCC[n+]1c2c(n(Cc3cnccn3)c1C)C(=O)c1ccccc1C2=O [YM155]; details: top dose 5.12 µM
Method: as §1

OSI-906 = compound: C[C@]1(O)C[C@@H](c2nc(-c3ccc4ccc(-c5ccccc5)nc4c3)c3c(N)nccn32)C1 [OSI-906]; details: top dose 2.56 µM; top dose inferred
Method: as §1

[1] = top dose 1 µM, screen: GDSC drug entry 1218, top dose inferred
[2] = top dose 2.56 µM, screen: GDSC drug entry 163

Cell Line	AUC (JNK Inhibitor VIII)	pIC50 (JNK Inhibitor VIII)	AUC (CGP-60474)	pIC50 (CGP-60474)	AUC (SB-715992)	pIC50 (SB-715992)	AUC (JQ1; [1])	pIC50 (JQ1; [1])	AUC (JQ1; [2])	pIC50 (JQ1; [2])	AUC (JNJ-26854165)	pIC50 (JNJ-26854165)	AUC (Cyclopamine)	pIC50 (Cyclopamine)	AUC (Docetaxel)	pIC50 (Docetaxel)	AUC (AMG-706)	pIC50 (AMG-706)	AUC (Belinostat)	pIC50 (Belinostat)	AUC (NSC-207895)	pIC50 (NSC-207895)	AUC (FTI-277)	pIC50 (FTI-277)	AUC (YM155)	pIC50 (YM155)	AUC (OSI-906)	pIC50 (OSI-906)
8-MG-BA (glioma, adherent)	0.988	< 5.00	0.708	7.23	0.941	< 6.89	0.986	< 6.00	0.348	7.20	0.844	5.19	0.83	5.04	0.495	9.12	0.985	< 5.70	0.442	6.06	0.977	< 4.70	0.974	< 5.99	0.021	> 7.70	0.957	< 5.59
A3-KAW (B-cell lymphoma, suspension)	0.992	< 5.00	0.53	7.72	0.679	7.65	0.507	7.19	0.394	7.06	0.981	< 5.00	0.944	< 4.80	0.993	< 7.90	0.985	< 5.70	0.268	6.49	0.864	4.92	0.978	< 5.99	0.076	> 7.70	0.965	< 5.59
AM-38 (glioma, semi-adherent)	0.961	< 5.00	0.962	< 6.59	0.78	7.27	0.987	< 6.00	0.986	< 5.59	0.845	5.13	0.988	< 4.80	0.875	< 7.90	0.935	< 5.70	0.341	6.35	0.883	< 4.70	0.976	< 5.99	0.048	> 7.70	0.954	< 5.59
AMO-1 (haematopoietic neoplasm, suspension)	0.991	< 5.00	0.695	7.29	0.658	7.69	0.983	< 6.00	0.738	6.17	0.81	5.36	0.984	< 4.80	0.758	8.42	0.991	< 5.70	0.201	6.71	0.963	< 4.70	0.987	< 5.99	0.019	> 7.70	0.803	5.97

pIC50: −log10 of the molar value. By IC50 is meant the dose at which the fit gives 50% viability; a limit (>, <) means that the fit lies beyond the doses tested. AUC, from the same fit, is the share of area under the viability curve across the 256-fold dose range: 1 means no effect, lower means more sensitive. For some of these results: An inferred top dose was derived from the fitted curves, not read from the paper. For some of these results: Where an entry number is given, a second screen of the drug exists; the two often differ.
